This list was built around the results that the source calls inconclusive (neither active nor inactive); the mix of calls is not that of the screen. No potency is given beside an inconclusive call; the fits are too rough. The source made the active and inactive calls. Calls follow the shape of the dose curve; as a rule, active = well fitted inhibition curve with a large enough effect; inconclusive = small, poorly fitted or top-dose-only effect, or another doubt; inactive = no such curve, though single readings can be large or run the other way.
The compounds below were run against DNA polymerase kappa (Homo sapiens) (UniProt Q9UBT6) (assay: qHTS for Inhibitors of Polymerase Kappa: Confirmatory Assay for Cherry-picked Compounds (AID 720501)). Details: purified Pol-kappa, fluorescent strand-displacement substrate.
Sequence of UniProt Q9UBT6 (Q9UBT6 whole entry, looked up): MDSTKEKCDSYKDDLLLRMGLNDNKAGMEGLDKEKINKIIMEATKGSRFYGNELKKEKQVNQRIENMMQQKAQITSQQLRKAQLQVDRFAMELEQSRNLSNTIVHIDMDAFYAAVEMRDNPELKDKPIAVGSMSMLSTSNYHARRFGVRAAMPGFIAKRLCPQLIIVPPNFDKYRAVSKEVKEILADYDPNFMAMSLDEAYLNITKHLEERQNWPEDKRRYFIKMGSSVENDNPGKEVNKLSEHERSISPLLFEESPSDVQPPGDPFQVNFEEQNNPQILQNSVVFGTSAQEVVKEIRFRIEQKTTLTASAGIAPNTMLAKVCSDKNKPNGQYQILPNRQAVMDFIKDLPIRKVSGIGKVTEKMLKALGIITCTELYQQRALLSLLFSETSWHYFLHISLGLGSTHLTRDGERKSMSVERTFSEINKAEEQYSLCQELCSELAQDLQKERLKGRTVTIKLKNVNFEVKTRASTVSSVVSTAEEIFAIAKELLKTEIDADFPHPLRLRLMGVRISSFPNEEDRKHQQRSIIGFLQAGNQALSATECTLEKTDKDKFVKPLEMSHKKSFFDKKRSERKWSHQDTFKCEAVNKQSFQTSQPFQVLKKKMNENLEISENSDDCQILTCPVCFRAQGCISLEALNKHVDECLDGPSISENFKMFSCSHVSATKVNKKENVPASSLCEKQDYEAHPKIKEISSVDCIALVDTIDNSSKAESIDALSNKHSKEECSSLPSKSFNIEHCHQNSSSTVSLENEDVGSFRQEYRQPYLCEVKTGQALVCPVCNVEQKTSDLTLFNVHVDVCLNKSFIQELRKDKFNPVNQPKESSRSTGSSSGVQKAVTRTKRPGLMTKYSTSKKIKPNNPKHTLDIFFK
Text: The processing and repair of DNA inter-strand crosslinks (ICL) in eukaryotic cells are extremely complex, potentially involving multiple DNA repair and damage tolerance pathways, including homologous recombination, nucleotide excision repair, translesion synthesis (TLS), and cell cycle checkpoints. […] A 1536-well format, fluorescence based, high-throughput screen (AID 588579) was developed in collaboration with the Oregon Health & Science University to screen for inhibitors of the Pol-kappa enzyme. This assay was used to validate the activity of the selected compounds from the primary screen against the human Pol-kappa. Inhibition is the desired outcome for this assay. NIH Chemical Genomics Center [NCGC] NIH Molecular Libraries Probe Centers Network [MLPCN] MLPCN Grant: MH094179 Assay Submitter (PI): Stephen Lloyd, Oregon Health & Science University
Three microliters of reagents (buffer in column 3 and 4 as negative control and 10 nM Pol-kappa in columns 1, 2, and 5-48) were dispensed into a 1536-well black solid-bottom plate. Compounds (23 nL) were transferred via Kalypsys pin tool equipped with 1536-pin array. The plates were then incubated for 15 min at room temperature, and 1 uL of substrate was added to start the reaction for a final concentration of 50 nM. The substrate was made by the annealing of unlabeled oligodeoxynucleotide primer (59-[…]-39) and TAMRA-labeled reporter strand (59-[…]-6-TAMRA-39) to oligodeoxynucleotide template labeled with BHQ-2 (59-BHQ-2-[…]-39) described in detail at the Yamanaka et.al. (PLOS, 2012) reference paper. The assay plates were initially read after 0 min and again after 10 min of kinetic reaction using the PerkinElmer Viewlux reader equipped with 525 nm excitation and 598 nm emission filters.
Potency is read from the fitted curve at half-maximal effect; tags tell the direction and shape of the fitted curve.

SMILES | Potency
O=C(N=Nc1c(O)[nH]c2ccccc12)c1cc(-c2cccs2)[nH]n1 | inconclusive [inhibitor, partial curve]
CCc1nn2c(=O)cc(COc3ccc(/C=C4\C(=N)N5N=C(C)SC5=NC4=O)cc3)nc2s1 | active: 18.9 µM
CC1=C(C#N)C(=O)NC(=O)/C1=C\c1ccc(-c2cc(C)c(C)cc2[N+](=O)[O-])o1 | inconclusive [inhibitor, single point]
Cc1cc(C)nc(SCC(=O)NNS(=O)(=O)c2ccc(C#N)cc2)n1 | inconclusive [inhibitor, full curve, poor fit]
CCn1c(SCC(=O)c2ccc(O)c(O)c2)nnc1-c1ccc(C)cc1 | inconclusive [inhibitor, partial curve]
CC(=O)Nc1ccc(NC(=O)CSc2nnc(NC(=O)c3ccc(Br)o3)s2)cc1 | inconclusive [inhibitor, single point]
Cc1c(Cl)cnc(NC(=O)COC(=O)c2ccncc2)c1Cl | inconclusive [inhibitor, partial curve]
COC(=O)c1ccc(COc2ccc(/C=N/Nc3nc(C)cc(=O)[nH]3)cc2)cc1 | inconclusive [inhibitor, full curve]
Cc1ccc2cc(/C=N/Nc3ccc(C(=O)O)cc3)c(Cl)nc2c1 | active: 26.7 µM
O=C(c1coc(=O)c(Br)c1)N1CCCc2ccccc21 | active: 42.3 µM
O=C(Nc1ccc(S(=O)(=O)Nc2ncccn2)cc1)C12CC3CC(CC(Cl)(C3)C1)C2 | active: 16.8 µM
O=C(CCS(=O)(=O)c1ccc(Br)cc1)Nc1ccc(Cl)c(C(F)(F)F)c1 | active: 18.9 µM
N#C/C(=C\c1cccnc1)C(=O)Nc1ccccc1[N+](=O)[O-] | inconclusive [inhibitor, full curve, poor fit]
CC(=O)Nc1ccc2c(O)cc(S(=O)(=O)O)cc2c1 | inconclusive [inhibitor, partial curve]
O=c1cc(-c2ccc(O)cc2)oc2ccc3ccccc3c12 | inconclusive [inhibitor, full curve]
CCCCCCCCC(=O)c1c(OC)oc(C=O)cc1=O | inconclusive [inhibitor, partial curve]
O=S(=O)(Nc1nc(-c2ccco2)c(-c2ccco2)s1)c1ccc(F)cc1F | inconclusive [inhibitor, full curve, poor fit]
O=C(O)C/C(=C\c1ccc(N2CCOCC2)c([N+](=O)[O-])c1)c1nc2ccccc2s1 | inconclusive [inhibitor, partial curve]
COc1cccc(NS(=O)(=O)c2ccc3[nH]cc(C(=O)N(C)C4CCCCC4)c(=O)c3c2)c1 | inconclusive [inhibitor, partial curve, poor fit]
CCc1ccc(NC(=O)c2ccc(Cn3nc(N4CCN(c5ccccc5)CC4)ccc3=O)o2)cc1 | inconclusive [inhibitor, partial curve, poor fit]

SMILES | Potency
CC(C)Sc1ncc(Cl)c(C(=O)N(Cc2ccc(N(C)C)cc2)C2CCS(=O)(=O)C2)n1 (stereo not given) | inconclusive [inhibitor, partial curve]
C#Cc1ccc([C@@H]2C=C(C(=O)O)O[C@H](OCCCCO)C2)cc1 | inconclusive [inhibitor, partial curve]
CC1CCCCC1NC(=O)COC(=O)c1c2c(nc3ccccc13)/C(=C\c1ccco1)CC2 (stereo not given) | active: 21.2 µM
COc1cccc2c1C(=O)c1c(O)c3c(c(O)c1C2=O)C[C@](O)(C(C)=O)C[C@H]3O[C@@H]1C[C@@H](N)[C@@H](O)[C@@H](C)O1 | active: 33.6 µM
Cc1ccc(-c2ccc(/C=C3\C(=O)ON=C3c3ccccc3)o2)c([N+](=O)[O-])c1 | inconclusive [inhibitor, single point]
Cc1ccc(N2CC(C(=O)Nc3cccc(C(=O)NC4CC4)c3)CC2=O)cc1 (stereo not given) | inconclusive [inhibitor, partial curve]
Nc1c(C(=O)Nc2cccc(C(=O)O)c2)sc2nc3c(cc12)CCCC3 | active: 21.2 µM
Cc1c(C#N)c(O)[nH]c(=O)c1N=Nc1ccc(S(N)(=O)=O)cc1 | inconclusive [inhibitor, partial curve]
CCOCCCN(Cc1ccco1)S(=O)(=O)c1cc2c(cc1Cl)NC(=O)CO2 | inconclusive [inhibitor, partial curve, poor fit]
C#Cc1ccc([C@H]2C=C(C(=O)O)O[C@@H](OCCCCO)C2)cc1 | inconclusive [inhibitor, partial curve]
O=C(O)c1ccccc1C(=O)c1ccc2oc(=O)[nH]c2c1 | inconclusive [inhibitor, full curve, poor fit]
O=C(NCc1ccco1)c1cccc2c1C(=O)c1ccc(/C=C/c3ccccc3)cc1S2(=O)=O | active: 18.9 µM
O=C(c1ccc2c(c1)N(Cc1cccc(F)c1)C(=O)c1ccccc1S2)N1CCC2(CC1)OCCO2 | inconclusive [inhibitor, partial curve, poor fit]
Cc1nc2ccc(-c3nc4ccc(N)cc4[nH]3)cc2[nH]1 | inconclusive [inhibitor, partial curve]
COc1ccc(O)c(/C=N/NC(=O)c2c(C)nnn2-c2nonc2N)c1 | inconclusive [inhibitor, partial curve]
CC(C)C(NC(=O)/C(=C\c1ccco1)NC(=O)c1ccco1)C(=O)O (stereo not given) | inconclusive [inhibitor, partial curve]
COc1ccc(N2Cc3cccc(C(=O)Nc4ccc(Cl)cc4)c3C2=O)cc1 | inconclusive [inhibitor, partial curve]
O=C(NCc1ccco1)c1c[nH]c2ccc(S(=O)(=O)Nc3ccc(F)cc3F)cc2c1=O | inconclusive [inhibitor, partial curve, poor fit]
O=C(Nc1nc2ccccc2s1)C1CCN(S(=O)(=O)c2cc([N+](=O)[O-])ccc2Cl)CC1 | inconclusive [inhibitor, partial curve]
O=C1C=CC(=O)N1c1cccc2cccnc12 | inconclusive [inhibitor, partial curve]

Reference: PubChem BioAssay (NCATS)
